# According to PubChem BioAssay AID2528 (National Center for Advancing Translational Sciences (NCATS), 2010):
# “And” between values parts separate entries of the source, which are not always exact repeats. Equal entries are not always repeated. Out of some 350,000 compounds screened, about 700 (0.2%) were called active. The inconclusive results got no clear call from the source; some entries with a clear call stand among them for comparison. Calls follow the shape of the dose curve; as a rule, active = well fitted inhibition curve with a large enough effect; inconclusive = small, poorly fitted or top-dose-only effect; inactive = flat fitted curve, though single readings scatter. Potencies of inconclusive entries are left out as doubtful fits. Some compounds were tested as several samples or in several runs, with calls that do not always agree.
# Molecular target: RecQ-like DNA helicase BLM (Homo sapiens) (UniProt P54132)
# Experiment: qHTS Assay for Inhibitors of Bloom's syndrome helicase (BLM); also: nearly all actives have a fitted effect of over 35% in size
# Details: recombinant BLM DNA unwinding, fluorescence dequenching; series mostly up to 56.1 µM; activity change, negative = inhibition: at the top concentration
# Description: Survival of cells and the faithful propagation of the genome depend on elaborate mechanisms of detecting and repairing DNA damage. Treatment of advanced cancer relies on radiation therapy or chemotherapy, which kill cancer cells by causing extensive DNA damage. It is often found, that cancer cells develop resistance to therapy through enhanced activity of DNA repair functions; this has led to an increased interest in developing drugs that interfere with DNA repair, which could sensitize cancer cells to conventional therapy.
# This validation qHTS assay pertains to human BLM, which is important in resolving abnormal DNA structures formed during replication or homologous recombination. Shutting down the expression of BLM leads to chromosomal instability and higher radiation sensitivity in cultured cells.
# The validation assay was a fluorescence quenching based kinetic qHTS for BLM Helicase DNA unwinding. The activity was measured as ATP-dependent separation of a 20-bp DNA duplex extended by 30-nt single-stranded tails (forked duplex). The forked DNA substrate was tagged with rhodamine fluorophore (carboxytetramethyl rhodamine, TAMRA) and BHQ-2 (Black Hole Quencher 2) dark quencher. Strand separation results in an increase in the fluorescence of TAMRA (excitation 525 nm, emission 598 nm). This substrate construct operates in a red-shifted region where very few compound library members have been noted to fluoresce (PubChem AIDs 593 and 594). An additional feature of the assay is the inclusion of 2.5 ug/ml poly (dIdC), to reduce interference by compounds such as DNA intercalators, a major source of false inhibitors.
# Ian Hickson, University of Oxford
# Opher Gileadi, Structural Genomics Consortium, University of Oxford
# Screening Center PI: Austin, C.P.
# Screening Center: NIH Chemical Genomics Center [NCGC]
# Three uL of reaction buffer (25 mM Tris-HCl (pH 8.0), 5 mM NaCl, 2 mM MgCl2, 1mM DTT, 0.01% Tween- 20, and 2.5 ug/ml poly(dI-dC), including enzyme (50 nM BLM), were dispensed into a 1536-well Greiner black assay plate via solenoid-valve based nanoliter dispensers. Compounds (23 nl each in columns 5-48) and control (23 nl each in column 2 as dose-response) were transferred via a Kalypsys pintool equipped with a 1536-pin array. The plates were incubated for 15 min at room temperature, and then 1 ul of substrates (200 nM DNA and 2 mM ATP, final concentrations) was added to start the reaction. The plate was transferred into a ViewLux high-throughput CCD imager where the reaction progress was measured in a discontinuous kinetic mode (two reads spaced 2 hours apart, with intermediate room temperature incubation of the covered assay plate) by using standard red-fluorescence optics (excitation filter 525 nm, emission filter 598 nm). Enzyme-free and vehicle (DMSO) controls were included for signal normalization.
# Potency is read from the fitted curve at half-maximal effect; tags tell the direction and shape of the fitted curve.
# Sequence of UniProt P54132 (P54132 whole entry, looked up): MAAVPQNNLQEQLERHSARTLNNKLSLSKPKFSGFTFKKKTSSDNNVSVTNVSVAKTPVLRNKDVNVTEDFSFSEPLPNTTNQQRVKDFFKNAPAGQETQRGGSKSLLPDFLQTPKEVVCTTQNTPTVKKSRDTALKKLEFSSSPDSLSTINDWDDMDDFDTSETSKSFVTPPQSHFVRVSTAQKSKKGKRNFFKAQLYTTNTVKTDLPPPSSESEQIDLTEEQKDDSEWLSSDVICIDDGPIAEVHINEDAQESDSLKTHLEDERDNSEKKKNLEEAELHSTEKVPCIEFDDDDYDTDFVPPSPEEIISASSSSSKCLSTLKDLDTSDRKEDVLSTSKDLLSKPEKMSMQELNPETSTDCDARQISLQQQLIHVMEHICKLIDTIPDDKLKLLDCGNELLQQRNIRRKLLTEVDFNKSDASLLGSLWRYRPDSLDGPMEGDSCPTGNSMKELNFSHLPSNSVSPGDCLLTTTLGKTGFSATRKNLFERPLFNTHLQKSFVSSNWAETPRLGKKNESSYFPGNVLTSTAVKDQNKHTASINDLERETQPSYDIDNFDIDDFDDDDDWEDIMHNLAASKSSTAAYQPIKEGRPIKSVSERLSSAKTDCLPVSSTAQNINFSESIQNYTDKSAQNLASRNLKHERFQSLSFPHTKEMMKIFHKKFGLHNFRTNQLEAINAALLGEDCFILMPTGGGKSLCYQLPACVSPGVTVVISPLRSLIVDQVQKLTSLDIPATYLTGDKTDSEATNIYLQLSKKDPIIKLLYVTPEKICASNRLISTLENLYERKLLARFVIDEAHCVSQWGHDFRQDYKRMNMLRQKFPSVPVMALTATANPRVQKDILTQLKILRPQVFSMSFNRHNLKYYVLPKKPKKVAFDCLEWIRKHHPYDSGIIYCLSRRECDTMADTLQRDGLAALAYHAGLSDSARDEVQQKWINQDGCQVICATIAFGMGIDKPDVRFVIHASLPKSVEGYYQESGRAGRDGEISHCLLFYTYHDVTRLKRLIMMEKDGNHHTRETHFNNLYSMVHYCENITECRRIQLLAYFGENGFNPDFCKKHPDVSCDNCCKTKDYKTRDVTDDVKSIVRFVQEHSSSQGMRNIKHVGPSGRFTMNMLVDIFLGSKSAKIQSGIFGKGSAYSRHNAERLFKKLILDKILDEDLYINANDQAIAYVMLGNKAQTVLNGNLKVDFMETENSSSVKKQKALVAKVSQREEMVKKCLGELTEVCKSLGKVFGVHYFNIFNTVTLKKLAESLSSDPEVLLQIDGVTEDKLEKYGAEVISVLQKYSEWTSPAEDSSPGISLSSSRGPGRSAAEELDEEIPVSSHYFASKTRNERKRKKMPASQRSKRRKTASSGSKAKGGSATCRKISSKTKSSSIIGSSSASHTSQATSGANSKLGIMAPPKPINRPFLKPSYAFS
SMILES,Potency,"activity change, negative = inhibition"
N#C/C(=C\c1ccc(O)c(O)c1)C(N)=S,"inconclusive [inhibitor, partial curve]",
Cc1ccc(/C=C2\C(=O)NC(=S)N(c3ccc(F)cc3)C2=O)s1,,inactive: -2.28%
COc1cccc2c1C(=O)c1c(O)c3c(c(O)c1C2=O)C[C@@](O)(C(=O)CO)C[C@@H]3O[C@H]1C[C@H](N)[C@H](OC2CCCCO2)[C@H](C)O1 (some centres not stated),"inconclusive [inhibitor, partial curve, poor fit]",
CC[C@@]1(O)C(=O)OCc2c1cc1n(c2=O)Cc2cc3c(N)cccc3nc2-1,"inconclusive [inhibitor, partial curve]",
Cc1cc(C=C2C(=O)N(C)C(=S)N(C)C2=O)c(C)n1-c1cccnc1,active: 17.8 µM,
O=C(Nc1ccc(Oc2ccc(Cl)cc2)c(Cl)c1)c1cc(I)cc(I)c1O,"inconclusive [inhibitor, single point]",
CC(C)(Cc1c[nH]c2ccc(Cl)cc12)NCCOc1ccccc1OCC1CC1,,inactive: -0.797%
COc1ccc2c3c([nH]c2c1)C(C)=NCC3,"inconclusive [inhibitor, single point]",
Nc1c(C(=O)NC2CCCC2)c2nc3ccccc3nc2n1CC1CCCO1 (configuration not stated),"inconclusive [inhibitor, single point]",
CCC(C)N1C(=O)/C(=C/c2ccc3c(c2)CCN3CCCCl)C(=O)NC1=S (configuration not stated),"inconclusive [inhibitor, partial curve]",
CCOC(=O)c1c(NS(=O)(=O)c2ccccc2)n(CCCOC)c2nc3ccccc3nc12,active: 5.62 µM,
CC(C)N1C(=O)/C(=C/C=C/c2ccco2)C(=O)N(Cc2ccco2)C1=O,"inconclusive [inhibitor, single point]",
Brc1c(Br)c(Br)c2n[nH]nc2c1Br,"inconclusive [inhibitor, single point]",
CC1(C)OC(c2ccccc2)=C/C(=C/C=C2C(=O)NC(=S)NC2=O)O1,active: 22.4 µM,
Cn1ncnc2c(=O)n(C)c(=O)nc1-2,active: 1.12 µM,
O=C(O)CC1OCC=C2CN3CCC45C6=CC(=O)C(=O)C([N+](=O)[O-])=C6NC4C1C2CC35 (configuration not stated),"inconclusive [inhibitor, single point]",
Cc1cc(/C=C2\C(=O)NC(=O)N(Cc3ccco3)C2=O)c(C)n1-c1ccc(O)cc1,active: 25.1 µM,
CC/C(=C(/CC)c1ccc(OP(=O)(O)O)cc1)c1ccc(OP(=O)(O)O)cc1,"inconclusive [inhibitor, single point]",
O=C1NC(=O)C(=O)C(=O)N1,"inconclusive [inhibitor, single point]",
C[C@H](CCC(=O)O)[C@H]1CC[C@@H]2[C@H]3CC[C@H]4C[C@H](O)CC[C@]4(C)[C@@H]3CC[C@@]21C,"inconclusive [inhibitor, single point]",
CCOCCCn1c(N)c(C(=O)Nc2sc3c(c2C(=O)OC)CCCC3)c2nc3ccccc3nc21,"inconclusive [inhibitor, single point]",
CC(C)=CCCC1(C)C=Cc2c(O)c3c(c(CC=C(C)C)c2O1)OC12C(=CC4CC1C(C)(C)OC2(C/C=C(/C)C(=O)O)C4O)C3=O (configuration not stated),active: 22.4 µM,
Cc1nc2c(=O)n(C)c(=O)nc-2n(C)n1,active: 0.794 µM,
Nc1c(C(=O)NCc2ccco2)c2nc3ccccc3nc2n1Cc1ccc(F)cc1,"inconclusive [inhibitor, single point]",
Cc1cccn2c(=O)cc(COc3cccc(NC(=O)COc4ccc(F)cc4)c3)nc12,active: 14.1 µM,
O=C1OC(c2cc(I)c(O)c(I)c2)(c2cc(I)c(O)c(I)c2)c2ccccc21,"inconclusive [inhibitor, single point]",

SMILES,Potency,"activity change, negative = inhibition"
CC(=O)OCC1=C(C(=O)O)N2C(=O)C(NC(=O)CCCC(N)C(=O)O)C2SC1 (configuration not stated),"inconclusive [inhibitor, single point]",
CCCCCCCC/C=C\CCCCCCCC(=O)OC[C@@H](COP(O)(O)=S)OC,"inconclusive [inhibitor, single point]",
CCCNS(=O)(=O)c1ccc(OCC(=O)N2CCN(Cc3ccc4c(c3)OCO4)CC2)cc1,,inactive: -5.72%
O=C(O)c1cccc2c1NC(C(=O)O)C1CC(Sc3ccccc3[N+](=O)[O-])C(Cl)C21 (configuration not stated),"inconclusive [inhibitor, single point]",
CC(=O)Oc1c2c(c(CC=C(C)C)c3c1C(=O)C1=CC4CC5C(C)(C)OC(C/C=C(\C)C(=O)O)(C4=O)[C@]15O3)OC(C)(CCC=C(C)C)C=C2 (some centres not stated),active: 22.4 µM,
COC(C(=O)C(O)C(C)O)C1Cc2cc3cc(OC4CC(OC5CC(O)C(OC)C(C)O5)C(OC(C)=O)C(C)O4)c(C)c(O)c3c(O)c2C(=O)C1OC1CC(OC2CC(OC3CC(C)(O)C(OC(C)=O)C(C)O3)C(O)C(C)O2)C(O)C(C)O1 (configuration not stated),"inconclusive [inhibitor, full curve]",
CCCCC/C=C\C/C=C\C/C=C\C/C=C\CCCC(=O)NCCO,"inconclusive [inhibitor, single point]",
NC(=O)CN1CCCC1=O,"inconclusive [inhibitor, full curve]",
NC(N)=NC(=O)c1nc(Cl)c(N)nc1N,"inconclusive [inhibitor, single point]",
NC(=O)c1ccc(N=Cc2c(O)n(Cc3ccco3)c(=O)[nH]c2=O)cc1,"inconclusive [inhibitor, single point]",
O=C(O)c1ccccc1-c1c2cc(Br)c(=O)cc-2oc2[c]([Hg])c(O)c(Br)cc12,active: 14.1 µM and active: 15.8 µM,
NS(=O)(=O)OC(CCc1ccccc1)C(Cl)(Cl)Cl (configuration not stated),"inconclusive [inhibitor, single point]",
CC(C)c1ccc(N2C(=O)NC(=O)/C(=C\C=C\c3ccco3)C2=O)cc1,"inconclusive [inhibitor, single point]",
COc1cc2c(cc1OC)-c1c(O)c(OC)cc3c1[C@H](C2)N(C)CC3,"inconclusive [inhibitor, partial curve]",
CC1=NCCc2c1[nH]c1cc(O)ccc21,active: 39.8 µM,
Cc1cccc2c1=NC(=O)/C(=C/c1c(O)[nH]c(=O)[nH]c1=O)C=2,,inactive: 4.93%
CCC(C)NC(=O)c1c(N)n(Cc2ccc3c(c2)OCO3)c2nc3ccccc3nc12 (configuration not stated),"inconclusive [inhibitor, single point]",
O=C1NC(=O)N(Cc2ccco2)C(=O)/C1=C/c1ccc(-c2cccc([N+](=O)[O-])c2)o1,"inconclusive [inhibitor, single point]",
O=P(O)(O)Oc1ccccc1P(=O)(c1ccccc1)c1ccccc1,,inactive: 1.9%
CCCCN1C(=O)/C(=C\c2ccco2)C(=O)N(CCc2ccccc2)C1=O,"inconclusive [inhibitor, single point]",
COc1ccc(CN2C(=O)NC(=O)/C(=C\c3ccco3)C2=O)cc1,"inconclusive [inhibitor, single point]",
CC1=CC(=O)c2c(O)cccc2C1=O,"inconclusive [inhibitor, single point]",
Cc1[nH]n(-c2ccccc2)c(=O)c1C(c1ccc([N+](=O)[O-])cc1)c1c(C)[nH]n(-c2ccccc2)c1=O,"inconclusive [inhibitor, single point]",
CCCCn1c(NC(=O)c2ccco2)c(C(=O)OCC)c2nc3ccccc3nc21,"inconclusive [inhibitor, single point]",
O=C1NC(=O)C(=Cc2csc3ccccc23)C(=O)N1,,inactive: 2.64%
COc1ccc(CN2C(=O)CC(=O)NC2=S)cc1,"inconclusive [inhibitor, single point]",

SMILES,Potency,"activity change, negative = inhibition"
O=C(Nc1ccc2oc(-c3cccnc3)nc2c1)c1ccc(-c2cccc(Cl)c2)o1,"inconclusive [inhibitor, partial curve]",
CC1(C)C[C@H]2C=C(C=O)[C@]3(C=O)C[C@]3(C)[C@H]2C1,"inconclusive [inhibitor, single point]",
[O]=[Cr](=[O])([OH])[O][Cr](=[O])(=[O])[OH],active: 7.94 µM and active: 1 µM,
CCCCN1C(=O)/C(=C/c2ccc(N(C)C)cc2)C(=O)N(Cc2ccco2)C1=O,"inconclusive [inhibitor, single point]",
CCOC(=O)C1CCN(/C=C2/C(=O)NC(=O)N(Cc3ccco3)C2=O)CC1,,inactive: 28.8%
O=C1NC(=S)N(C2CC2)C(=O)/C1=C/c1ccc2c(c1)CCN2CCCCl,"inconclusive [inhibitor, single point]",
CN1C[C@@H](NS(=O)(=O)N(C)C)C[C@@H]2c3cccc4c3c(cn4C)C[C@H]21,,inactive: 1.52%
O=C(N=Nc1c(O)[nH]c(=O)[nH]c1=O)C1COc2cc3ccccc3cc2O1 (configuration not stated),"inconclusive [inhibitor, single point]",
CC(=O)O[C@@H]1C[C@@]2(C)C(c3ccoc3)C[C@H]3O[C@]32[C@]2(C)C(=O)C(O)=C3C(C)(C)C(=O)C=C[C@]3(C)C12 (some centres not stated),,inactive: -8.06%
Cn1cccc1/C=C1\C(=O)NC(=O)N(Cc2ccccc2Cl)C1=O,"inconclusive [inhibitor, single point]",
CCC(C)/C=C(C)/C=C/C1=CC2=C(Cl)C(=O)C(C)(OC(C)=O)C(=O)C2=CO1 (configuration not stated),,inactive: -5.44%
NCCc1cc(O)c(O)cc1O,"inconclusive [inhibitor, partial curve]",
CCOC(=O)c1c(NC(=O)c2c(N)n(CCCOC)c3nc4ccccc4nc23)sc2c1CCCC2,active: 3.98 µM,
CC[C@]1(O)CC(O[C@@H]2CC(N(C)C)C(O)C(C)O2)c2c(cc3c(c2O)C(=O)c2c(O)ccc(O)c2C3=O)C1C(=O)OC (some centres not stated),"inconclusive [inhibitor, single point]",
CCn1nc(/C=C/c2ccccc2)nc2c(=O)n(C)c(=O)nc1-2,,inactive: -7.51%
COc1ccc(N2C(=O)/C(=C/c3ccco3)C(=O)NC2=S)cc1,active: 12.6 µM,
CCOc1ccc(N2C(=O)/C(=C/c3ccco3)C(=O)NC2=S)cc1,"inconclusive [inhibitor, single point]",
Cc1ccc(-n2c(O)c(C=NCc3ccco3)c(=O)[nH]c2=S)cc1C,"inconclusive [inhibitor, single point]",
CCOC(=O)c1c(-n2c(C)cc(C=C3C(=O)NC(=S)NC3=O)c2C)sc2c1CCCC2,"inconclusive [inhibitor, single point]",
Cc1cccc(-n2c(O)c(/C=C/C=Nc3ccccc3)c(=O)[nH]c2=O)c1,,inactive: -6.23%
CCCCNC(=O)c1c(N)n(CCCOC)c2nc3ccccc3nc12,"inconclusive [inhibitor, single point]",
Nc1c(C(=O)NCCCc2ccccc2)c2nc3ccccc3nc2n1Cc1cccs1,"inconclusive [inhibitor, single point]",
CC(C)CCNC(=O)c1c(N)n(CC2CCCO2)c2nc3ccccc3nc12 (configuration not stated),"inconclusive [inhibitor, single point]",
Cl.Cl.Cl.Cl.Cl.Cl.N.N.N.N.NNNNN.NNNNN.O.O.[Ru].[Ru].[Ru],active: 25.1 µM,
O=C1CC(=O)N(Cc2ccccc2)C(=O)N1CCCCCCN1C(=O)CC(=O)N(Cc2ccccc2)C1=O,"inconclusive [inhibitor, full curve, poor fit]",
